# Some of the results follow. Most values come without repeats; read them as rough.
# Experiments:
# Experiment in all cases: cell count relative to DMSO control; melanoma cells; higher = more viable cells
# Details in all cases: library dose: standard library concentration; 72 h
# G361 = system: G361
# IPC-298 = system: IPC-298
# IST-MEL1 = system: IST-MEL1
# LB2518-MEL = system: LB2518-MEL
# LOXIMVI = system: LOXIMVI
# MEL-HO = system: MEL-HO
# MZ2-MEL = system: MZ2-MEL
# MeWo = system: MeWo
# RPMI7951 = system: RPMI7951
# RVH-421 = system: RVH-421
# 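Also: cells treated in 1,536-well plates, then fixed and DAPI-stained, with nuclei counted from automated high-throughput microscope images.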
Compound,cell count (G361) [%],cell count (IPC-298) [%],cell count (IST-MEL1) [%],cell count (LB2518-MEL) [%],cell count (LOXIMVI) [%],cell count (MEL-HO) [%],cell count (MZ2-MEL) [%],cell count (MeWo) [%],cell count (RPMI7951) [%],cell count (RVH-421) [%]
"C[As](C)SC[C@H](NC(=O)CC[C@H](N)C(=O)O)C(=O)NCC(=O)O [Darinaparsin] + CN(C)S(=O)(=O)c1ccc2c(c1)/C(=C/c1cc3c([nH]1)CCCC3)C(=O)N2 [SU6656] (first compound 2 µM, partner dose 2 µM)",58.3,59.6,24.1,61.9,77.9,78.8,87.8,78,61.9,339
"C[As](C)SC[C@H](NC(=O)CC[C@H](N)C(=O)O)C(=O)NCC(=O)O [Darinaparsin] + O=C(Oc1ccc([N+](=O)[O-])cc1)N1CCC(C(O)(c2ccc3c(c2)OCO3)c2ccc3c(c2)OCO3)CC1 [JZL184] (first compound 2 µM, partner dose 5 µM)",76.8,102,102,89.5,95.9,86.1,85.8,66.4,76.5,104
"Cn1cc(C2=C(c3cn(C4CCN(Cc5ccccn5)CC4)c4ccccc34)C(=O)NC2=O)c2ccccc21 [Enzastaurin] + Nc1cccc2c1CN(C1CCC(=O)NC1=O)C2=O [lenalidomide] (first compound 4 µM, partner dose 5 µM)",76.6,114,82.7,100,70.4,96.7,88.2,100,61.2,61.8
"C[As](C)SC[C@H](NC(=O)CC[C@H](N)C(=O)O)C(=O)NCC(=O)O [Darinaparsin] + O=c1cc(-c2cccc3c2Sc2ccccc2S3)oc(N2CCOCC2)c1 [KU55933] (first compound 2 µM, partner dose 5 µM)",56.8,67.6,85.8,90.5,89.8,79,81.5,63.6,84.1,76.4
"C[As](C)SC[C@H](NC(=O)CC[C@H](N)C(=O)O)C(=O)NCC(=O)O [Darinaparsin] + CC(C)CCN1c2nc(Nc3cc(F)c(O)c(F)c3)ncc2N(C)C(=O)C1C [BID1870] (first compound 2 µM, partner dose 1 µM)",45.3,61.8,78,84.4,63.5,58.2,76.2,48.6,52.9,54.8
"N.N.[Cl][Pt][Cl] [cisplatin] + O=S(=O)(c1ccccc1)N(CC(F)(F)F)c1ccc(C(O)(C(F)(F)F)C(F)(F)F)cc1 [T0901317] (first compound 8 µM, partner dose 7 µM)",82.4,95,96.2,85.6,94.6,90.8,102,92.9,111,105
"C[As](C)SC[C@H](NC(=O)CC[C@H](N)C(=O)O)C(=O)NCC(=O)O [Darinaparsin] + Cn1c(Nc2ccc(C(F)(F)F)cc2)nc2cc(Oc3ccnc(-c4ncc(C(F)(F)F)[nH]4)c3)ccc21 [CHIR265] (first compound 2 µM, partner dose 0.4 µM)",16.7,42.2,83.7,31.1,83.5,63.7,58.8,52.9,58.3,41.1
"Cn1cc(C2=C(c3cn(C4CCN(Cc5ccccn5)CC4)c4ccccc34)C(=O)NC2=O)c2ccccc21 [Enzastaurin] + CCCS(=O)(=O)Nc1ccc(F)c(C(=O)c2c[nH]c3ncc(Cl)cc23)c1F [PLX4720] (first compound 4 µM, partner dose 0.4 µM)",65.7,67.4,96.6,91.4,116,95.5,69,104,92,78.1
"N.N.[Cl][Pt][Cl] [cisplatin] + CN1CCN(c2ccc3nc(-c4c(N)c5c(F)cccc5[nH]c4=O)[nH]c3c2)CC1 [Dovitinib] (first compound 8 µM, partner dose 0.5 µM)",72,85.1,83.7,69,69.6,65.7,77.2,51.3,47.8,68.2
"C[As](C)SC[C@H](NC(=O)CC[C@H](N)C(=O)O)C(=O)NCC(=O)O [Darinaparsin] + O=S(=O)(c1ccccc1)N(CC(F)(F)F)c1ccc(C(O)(C(F)(F)F)C(F)(F)F)cc1 [T0901317] (first compound 2 µM, partner dose 7 µM)",73.2,77.3,82.7,92.6,86.6,80.7,101,76.8,89.6,73.2
"Cn1cc(C2=C(c3cn(C4CCN(Cc5ccccn5)CC4)c4ccccc34)C(=O)NC2=O)c2ccccc21 [Enzastaurin] + COCC[n+]1c2c(n(Cc3cnccn3)c1C)C(=O)c1ccccc1C2=O [YM155] (first compound 4 µM, partner dose 0.002 µM)",62.9,35.3,45.4,20,32.4,90.3,29.8,23,34.7,59.5
"N.N.[Cl][Pt][Cl] [cisplatin] + Nc1ncn([C@H]2C[C@H](O)[C@@H](CO)O2)c(=O)n1 [decitabine] (first compound 8 µM, partner dose 0.5 µM)",64.8,64.2,76.9,66.3,79,73.3,71.3,60.6,84.3,92.7
"C[C@]12O[C@H](C[C@]1(O)CO)n1c3ccccc3c3c4c(c5c6ccccc6n2c5c31)CNC4=O [Lestaurtinib] + Nc1nc(F)nc2c1ncn2[C@@H]1O[C@H](CO)[C@@H](O)[C@@H]1O [fludarabine] (first compound 0.02 µM, partner dose 1 µM)",99.3,65.2,85.7,68.4,73.8,67.7,102,91.7,60.3,63.9
"Cn1cc(C2=C(c3cn(C4CCN(Cc5ccccn5)CC4)c4ccccc34)C(=O)NC2=O)c2ccccc21 [Enzastaurin] + Oc1nc(-c2ccc(C(F)(F)F)cc2)nc2c1CSCC2 [XAV939] (first compound 4 µM, partner dose 10 µM)",67.2,90.8,87.3,80.9,88.9,80.3,78.1,83.6,66,55.1
"N.N.[Cl][Pt][Cl] [cisplatin] + CN(C)S(=O)(=O)c1ccc2c(c1)/C(=C/c1cc3c([nH]1)CCCC3)C(=O)N2 [SU6656] (first compound 8 µM, partner dose 2 µM)",68.8,109,83,68.3,96.7,102,109,85.3,69.6,86.2
"C[As](C)SC[C@H](NC(=O)CC[C@H](N)C(=O)O)C(=O)NCC(=O)O [Darinaparsin] + O=C(Nc1cccc(Cl)c1)Nc1ncc(CCNc2ncnc3ccsc23)s1 [SNS314] (first compound 2 µM, partner dose 0.004 µM)",64.8,92.3,48.5,60.6,83.5,80.8,86.5,59.6,73.3,75.9
"C[C@]12O[C@H](C[C@]1(O)CO)n1c3ccccc3c3c4c(c5c6ccccc6n2c5c31)CNC4=O [Lestaurtinib] + CO[C@@H]1[C@H](N(C)C(=O)c2ccccc2)C[C@H]2O[C@]1(C)n1c3ccccc3c3c4c(c5c6ccccc6n2c5c31)C(=O)NC4 [Midostaurin] (first compound 0.02 µM, partner dose 0.4 µM)",63.1,69.3,82.2,53.8,81.7,82,84.4,66.2,68.6,67.7
"Cn1cc(C2=C(c3cn(C4CCN(Cc5ccccn5)CC4)c4ccccc34)C(=O)NC2=O)c2ccccc21 [Enzastaurin] + NC(=O)c1ccc(N(C(N)=O)c2c(F)cccc2F)nc1-c1ccc(F)cc1F [VX702] (first compound 4 µM, partner dose 2 µM)",65.9,90.9,87.6,51.9,110,101,105,97.4,66.1,64.3
"N.N.[Cl][Pt][Cl] [cisplatin] + COc1ccc(Cl)c(Nc2nc3ccccc3nc2NS(=O)(=O)c2cccc(NC(=O)C(C)(C)N)c2)c1 [XL147] (first compound 8 µM, partner dose 4 µM)",86.2,103,72.1,83.7,82.3,73.4,100,80,73.4,72
"Cn1cc(C2=C(c3cn(C4CCN(Cc5ccccn5)CC4)c4ccccc34)C(=O)NC2=O)c2ccccc21 [Enzastaurin] + Clc1ccc(Nc2nnc(Cc3ccncc3)c3ccccc23)cc1 [vatalanib] (first compound 4 µM, partner dose 10 µM)",49.7,73.3,41.2,58.3,38.6,64.4,79.3,78,43.5,37.6
"Cn1cc(C2=C(c3cn(C4CCN(Cc5ccccn5)CC4)c4ccccc34)C(=O)NC2=O)c2ccccc21 [Enzastaurin] + Cc1ccc(NC(=O)c2cccc(N(C)C)c2)cc1NC(=O)c1ccc(O)cc1 [ZM336372] (first compound 4 µM, partner dose 10 µM)",77.3,114,12.9,54,115,88.9,131,102,67.3,58.4
"C[C@]12O[C@H](C[C@]1(O)CO)n1c3ccccc3c3c4c(c5c6ccccc6n2c5c31)CNC4=O [Lestaurtinib] + Cn1c(=O)n(-c2ccc(C(C)(C)C#N)cc2)c2c3cc(-c4cnc5ccccc5c4)ccc3ncc21 [NVP-BEZ235] (first compound 0.02 µM, partner dose 0.02 µM)",49.1,55.9,74.4,47.1,99.9,57.5,70.2,53.9,86.1,71.7

# Source: the supplement of paper PMC4604168 (melanoma cell lines)
